{"source": "PubChem BioAssay AID686979", "about": "(National Center for Advancing Translational Sciences (NCATS), 2013)", "note": "The campaign covered roughly 420,000 compounds. About 50,000 (12%) were called active. The shares of active, inactive and inconclusive entries below differ from those in the screen. Calls come from the whole dose curve; as a rule, active = well fitted inhibition curve with a large enough effect; inconclusive = small, poorly fitted or top-dose-only effect; inactive = flat fitted curve, though single readings scatter. Potencies of inconclusive entries are left out as doubtful fits. % is set by controls: 0 for no effect and ±100 for the full control effect; potency is the fitted concentration of half-maximal effect; tags give direction and shape of the fitted curve."}
{"assay": "qHTS for Inhibitors of human tyrosyl-DNA phosphodiesterase 1 (TDP1): qHTS in cells in presence of CPT; note: nearly all actives have a fitted effect of over 55% in size", "conditions": "chicken DT40 Tdp1-/-;hTDP1 cells + 20 nM CPT, ATP luminescence, 48 h; activity change, negative = growth inhibition: at 46.2 µM (top of the series)", "in_short": "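Cell growth measured by CellTiter-Glo luminescence after a minimum 48 h, 37 C compound exposure with 20 nM CPT in Tdp1-knockout DT40 cells stably expressing hTDP1, seeded 400/well; qHTS titration format.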"}
{"smiles": "O=C(CSc1nc(-c2ccco2)cc(C(F)(F)F)n1)NCCN1CCOCC1", "Potency": "inactive"}
{"smiles": "CCOC(=O)c1c(-c2ccc(OC)c(OC)c2)csc1NC(=O)c1ccc(C)cc1", "Potency": "inactive"}
{"smiles": "CCCCNc1oc(-c2ccc(COc3ccccc3C)o2)nc1C#N", "Potency": "inconclusive [inhibitor, single point]"}
{"smiles": "COc1cccc(NC(=O)Nc2ccncc2)c1", "Potency": "inactive"}
{"smiles": "CC1(C)Cc2cccc(OCC(=O)NCc3ccc(F)cc3)c2O1", "Potency": "inconclusive [inhibitor, partial curve]"}
{"smiles": "CCOC(=O)c1cc(-c2ccccc2)n(CCC(=O)NCCc2cccc(C)c2)c1C", "Potency": "active: 16.4 µM"}
{"smiles": "CC(C)NC(=S)NN=C1CCCCCCCCCCC1", "Potency": "active: 13 µM"}
{"smiles": "COCCN(Cc1ccccc1)C(=O)c1cccc(S(=O)(=O)N2CCN(c3ccccc3)CC2)c1", "Potency": "inconclusive [inhibitor, single point]"}
{"smiles": "COc1ccc(S(=O)(=O)NCCc2sc3nc(-c4ccc(C)cc4)nn3c2C)cc1C", "activity change, negative = growth inhibition": "inconclusive: -31.4% [inhibitor]"}
{"smiles": "CC(=O)c1cccc(NC(=O)Cc2ccc(NC(=O)N3CCCCc4ccccc43)cc2)c1", "Potency": "inconclusive [inhibitor, single point]"}
{"smiles": "COc1ccc(S(=O)(=O)N(CC(=O)NCCSc2ccccc2)c2ccc(C)cc2)cc1", "Potency": "active: 18.4 µM"}
{"smiles": "Cc1ccccc1NC(=O)c1c(C)[nH]c(=S)c(C#N)c1-c1ccco1", "Potency": "inactive"}
{"smiles": "COc1ccccc1CNC(=O)COC(=O)c1cccc(S(=O)(=O)N2CCOCC2)c1", "Potency": "inactive"}
{"smiles": "CN(C)c1ccc(/C=C/c2ccccn2)cc1", "Potency": "active: 1.41 µM"}
{"smiles": "CCC(=O)N1CCc2cc(S(=O)(=O)CCC(=O)N3CCN(c4ccccc4F)CC3)ccc21", "Potency": "inconclusive [inhibitor, partial curve]"}
{"smiles": "Cc1noc(C)c1C(=O)OCC(=O)/C=C1\\N(C)c2ccccc2C1(C)C", "Potency": "inconclusive [inhibitor, single point]"}
{"smiles": "CCCCN1C(=O)C(C#N)CC2=C1CC(C)(C)CC2=O", "note": "(stereo unspecified)", "Potency": "inactive"}
{"smiles": "COc1ccc(NC(=O)CNC(=O)Cc2ccccc2)cc1OC", "Potency": "inactive"}
{"smiles": "O=C(NCCN1CCN(C(=O)c2cccc([N+](=O)[O-])c2)CC1)C(=O)NCc1ccc(Cl)cc1", "Potency": "inconclusive [inhibitor, single point]"}
{"smiles": "C/C(=N\\Nc1nc2ccccc2[nH]1)c1ccc([N+](=O)[O-])cc1", "Potency": "inconclusive [inhibitor, single point]"}
{"smiles": "Cc1nn(C)c(C)c1S(=O)(=O)N1CCCC(C(=O)NCC2COc3ccccc3O2)C1", "note": "(stereo unspecified)", "Potency": "inconclusive [inhibitor, single point]"}
